# Source: the supplement of paper PMC10126150
# Values marked as one replicate rest on one cluster of the flow cell; about a third of the high ones do not repeat.
# System: ATP
# Assay: switch fluorescence ratio, 500 uM ATP over buffer (Cy3 cluster intensity, sum of 5 cycles each) (fold (ratio)); higher = stronger signal-on switching upon ATP binding; sequences stand for … in TCGTCGGCAGCGTCAGATGTGTATAAGAGACAGTTTTTTTTTTTTTTTTTTTTTTTTT…TC
# Conditions: aptamer strand: ATP DNA aptamer (quencher-CACCTGGGGGAGTATTGCGGAGGAAGG + anchor), 100 nM annealed; ATP concentration: 500 uM; one replicate
# Outline: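 Exposure to 500 uM ATP lasted 15 min at 22 °C before imaging, and a selection-buffer image was taken beforehand, for Cy3-labelled switching-strand clusters on a modified Illumina MiSeq flow-cell annealed to 100 nM quencher-labelled ATP aptamer. Five buffer/ATP cycles were run with NaOH stripping and re-annealing between them. The fluorescence ratio per cluster is summed target-cycle over summed buffer-cycle Cy3 intensity, averaged per switch-domain sequence. Clusters outside 100-1000 RFU were excluded.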
row,Sequence,switch fluorescence ratio
1,TTCTAATCGT,0.986
2,TTCTAATGTC,1.07
3,TTCTAATGTG,0.993
4,TTCTACCTA,1.01
5,TTCTAGGATC,1.04
6,TTCTAGTACC,1.05
7,TTCTATGAGG,1
8,TTCTATTCAA,1.08
9,TTCTCACAAA,0.97
10,TTCTCATTGA,1.03
11,TTCTCATTTA,1.03
12,TTCTCCATTG,0.985
13,TTCTCCCGGA,1.13
14,TTCTCGAGCC,1
15,TTCTCGCTGT,1.08
16,TTCTCTACCT,1.07
17,TTCTCTCTTA,0.992
18,TTCTGAAAGG,1.08
19,TTCTGACAC,1.06
20,TTCTGACTGC,1.12
21,TTCTGATGTT,0.985
22,TTCTGCATGG,0.993
23,TTCTGCTAAC,1.56
24,TTCTGGAGCG,1.17
25,TTCTGGGGG,0.951
26,TTCTGTCCGG,1.01

row,Sequence,switch fluorescence ratio
1,TTCTGTCGCG,1
2,TTCTGTTATA,1.01
3,TTCTGTTCGG,0.956
4,TTCTGTTTAA,0.971
5,TTCTTAAGA,1
6,TTCTTACTA,1
7,TTCTTAGAGC,0.985
8,TTCTTAGGTG,1.07
9,TTCTTAGTCT,1.05
10,TTCTTATGAG,1.04
11,TTCTTCACTG,1.01
12,TTCTTCGGGG,1.65
13,TTCTTGAACT,1.06
14,TTCTTGGGGA,0.988
15,TTCTTGGGT,0.98
16,TTCTTTAAGC,1.06
17,TTCTTTAGTC,0.991
18,TTCTTTAGTG,0.974
19,TTCTTTCCCC,1.09
20,TTCTTTGTAC,0.991
21,TTCTTTTGCC,0.989
22,TTCTTTTTT,1.01
23,TTGAACAAGT,1.04
24,TTGAACCTTG,1.06
25,TTGAACTAG,0.993
26,TTGAAGACCA,1.03

row,Sequence,switch fluorescence ratio
1,TTGAAGAGGC,1.07
2,TTGAAGCTG,0.98
3,TTGAAGCTTT,1.75
4,TTGAAGGACA,1.01
5,TTGAAGGACC,1.02
6,TTGAATAATA,1.01
7,TTGAATCTTC,0.998
8,TTGACATTGT,1.02
9,TTGACGAAGT,1.01
10,TTGACGATGC,1.64
11,TTGACGGTTT,1.02
12,TTGACTCGG,0.987
13,TTGAGAGCGT,0.991
14,TTGAGCAAAT,1.22
15,TTGAGCATCG,1.02
16,TTGAGCGGGA,0.992
17,TTGAGCTGGG,0.941
18,TTGAGCTTGG,0.971
19,TTGAGGATAT,0.989
20,TTGAGTCCGC,2.01
21,TTGAGTGGCA,1.02
22,TTGAGTGTG,1.05
23,TTGAGTTCGC,1.03
24,TTGATACGGG,1.03
25,TTGATATAC,1.17
26,TTGATCATTT,0.984

row,Sequence,switch fluorescence ratio
1,TTGATCCAT,0.975
2,TTGATCCCAA,1.05
3,TTGATCCGCG,1.35
4,TTGATCTTAC,1.04
5,TTGATGCCAT,1.21
6,TTGATGGGGC,0.937
7,TTGCACATAA,1.1
8,TTGCAGGTAG,1.18
9,TTGCAGTCAT,0.984
10,TTGCATAAAA,1.02
11,TTGCATACAT,1.32
12,TTGCATCGA,1.02
13,TTGCCCCGAG,1.2
14,TTGCCCGTTT,0.968
15,TTGCCGAACC,1.25
16,TTGCCGGTTA,1.02
17,TTGCCTAAGT,0.989
18,TTGCCTGGCG,0.975
19,TTGCGAACGG,1.01
20,TTGCGCAGGG,1.12
21,TTGCGCCAGC,1.05
22,TTGCGGTAGG,0.958
23,TTGCGTCGGA,0.988
24,TTGCTAAGC,1.06
25,TTGCTACGGT,1.08
26,TTGCTAGGA,0.971

row,Sequence,switch fluorescence ratio
1,TTGCTGGTGC,0.959
2,TTGCTGTAT,0.998
3,TTGCTGTTGA,1.04
4,TTGCTTGGCC,1
5,TTGCTTTCGC,0.924
6,TTGGAAAGCG,0.991
7,TTGGAACAAA,0.996
8,TTGGAACAAT,2.5
9,TTGGAACGGC,1.02
10,TTGGAACTA,0.983
11,TTGGAAGAGA,1.02
12,TTGGAATCTA,1.02
13,TTGGAATGCG,0.931
14,TTGGACCCGA,0.994
15,TTGGAGATT,0.992
16,TTGGAGGTGC,1.4
17,TTGGATAGCA,1.02
18,TTGGATCGCC,1.01
19,TTGGATCTGT,0.986
20,TTGGCAGATA,0.993
21,TTGGCAGCGG,0.977
22,TTGGCAGCGT,1.05
23,TTGGCAGGTG,3.04
24,TTGGCATAAT,0.968
25,TTGGCATGT,1.01
26,TTGGCCAGCG,0.995

row,Sequence,switch fluorescence ratio
1,TTGGCCGCC,1.01
2,TTGGCGATAG,1.02
3,TTGGCGTCTT,0.996
4,TTGGCTACTT,1.08
5,TTGGCTTGAG,1.01
6,TTGGGAATTG,1.12
7,TTGGGACCCC,1.57
8,TTGGGCAAAC,1.01
9,TTGGGCAATG,1
10,TTGGGCCAGT,0.998
11,TTGGGCCTAA,1.03
12,TTGGGCTGAA,1
13,TTGGGCTGCA,1.05
14,TTGGGGCCCC,1.02
15,TTGGGTTTT,1.01
16,TTGGTAGAGG,0.986
17,TTGGTAGCCA,1.01
18,TTGGTAGGTA,0.997
19,TTGGTATTAC,1.02
20,TTGGTCAGGG,0.979
21,TTGGTCCAAA,1.01
22,TTGGTCCCGG,0.975
23,TTGGTCTG,0.989
24,TTGGTGCAAT,1.34
25,TTGGTGTATG,1.05
26,TTGGTGTGCG,0.976

row,Sequence,switch fluorescence ratio
1,TTGGTTGTCC,0.979
2,TTGGTTTTA,1.02
3,TTGTAACAAT,1.02
4,TTGTAAGCCT,1.08
5,TTGTAAGTAC,1.7
6,TTGTAATCAA,0.998
7,TTGTACAATT,1.01
8,TTGTACTCCT,1.13
9,TTGTAGAATC,1
10,TTGTAGGTAG,1.02
11,TTGTAGTCCC,1.03
12,TTGTATCCCC,1.02
13,TTGTATCCGC,1
14,TTGTATGCGG,0.913
15,TTGTCAATGG,2.17
16,TTGTCACGTA,1.03
17,TTGTCAGCT,0.986
18,TTGTCATGCA,1.01
19,TTGTCCACTA,0.98
20,TTGTCTTGGC,1.01
21,TTGTGAACTC,1.01
22,TTGTGACAG,0.98
23,TTGTGACAGA,1.11
24,TTGTGAGCAT,1.04
25,TTGTGATGGT,0.971
26,TTGTGGACTA,0.992

row,Sequence,switch fluorescence ratio
1,TTGTGGGT,0.955
2,TTGTGGGTTC,1.03
3,TTGTGTTAAC,1.03
4,TTGTTATATG,1.01
5,TTGTTCATG,1.02
6,TTGTTGATTG,0.986
7,TTGTTGGCAT,0.946
8,TTGTTGGGCG,1.05
9,TTGTTGTTCT,0.989
10,TTGTTTATCC,1
11,TTGTTTCGCG,0.943
12,TTGTTTTGGA,0.984
13,TTTAAACATT,1.03
14,TTTAAATACG,1.04
15,TTTAACACAG,1.04
16,TTTAACAGAG,1
17,TTTAACGGCG,1.05
18,TTTAACGGTT,0.985
19,TTTAAGAACT,1.08
